Patent publication US20190309060A1 (PHILOGEN S P A, published 2019)
Blank lines part the entries; values can stand above or below the binder they belong to.

Columns and labels:
[1] = target: T1, human cadherin-17 (as coated on the CM5 chip / used in the affinity ELISA) (human, UniProt Q12864 30-245, limits assumed); assay: BiaCore (SPR), monomeric scFv at 1000, 350, 175 and 87 nM over a human cadherin-17 coated CM5 chip
T1 construct: also called human cadherin-17 coated chip
T1 sequence: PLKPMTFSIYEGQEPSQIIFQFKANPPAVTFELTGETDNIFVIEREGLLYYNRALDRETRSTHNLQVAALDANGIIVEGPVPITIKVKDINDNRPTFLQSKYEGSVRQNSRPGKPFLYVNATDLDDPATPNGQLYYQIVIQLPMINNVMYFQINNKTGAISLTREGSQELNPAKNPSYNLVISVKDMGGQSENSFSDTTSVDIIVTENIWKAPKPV
Procedure: (§1) For the analysis of the AV17.3 antibody, size-exclusion chromatography was performed on an ÄKTA FPLC system using the Superdex 75 Increase column (Amersham Biosciences). Surface plasmon resonance experiments affinity measurements were performed by BIAcore X100 instrument with purified scFvs. Human Cadherin-17 or mouse Cadherin-17 was immobilized on a CM5 sensor chip (GE Healthcare) and monomeric scFv (AV17.3) were injected as serial-dilution. The concentrations are reported on FIG. 2D and FIG. 2E.
(§2) A more precise affinity constant determination was performed by BiaCore analysis with the monomeric scFv(AV17) obtained by size exclusion chromatography (SEC-75, Amersham Biosciences) on a human cadherin-17 coated chip. […] For the AV17.3 antibody, the affinity constant determination was performed by BiaCore analysis with the monomeric scFv(AV17.3) obtained by size exclusion chromatography (SEC-75i, Amersham Biosciences) on a human cadherin-17 coated chip and a mouse cadherin-17 coated chip.

[2] = target: T2, mouse cadherin-17 (as coated on the CM5 chip) (mouse, UniProt Q9R100 29-244, limits assumed); assay: BiaCore (SPR), monomeric scFv at 1200, 600, 300 and 150 nM over a mouse cadherin-17 coated CM5 chip
T2 construct: also called murine Cadherin-17
T2 sequence: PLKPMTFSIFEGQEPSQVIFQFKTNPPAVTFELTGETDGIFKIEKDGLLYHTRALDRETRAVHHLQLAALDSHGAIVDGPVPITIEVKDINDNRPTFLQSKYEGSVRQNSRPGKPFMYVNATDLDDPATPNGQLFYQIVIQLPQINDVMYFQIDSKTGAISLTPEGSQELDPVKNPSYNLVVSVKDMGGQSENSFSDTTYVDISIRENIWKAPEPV
Procedure: as §1, §2

[3] = target: T3, recombinant human galectin-4 (Uniprot P56470, residues 1-323) (human, UniProt P56470 1-323, surface lysine residues biotinylated with NHS-LC-biotin); assay: SPR (BiaCore T3000), galectin-4 on CM5 chip, scFv injected
T3 construct: Expressed in CHO.S cells and immobilized on a CM5 chip for BiaCore; also called biotinylated galectin-4; recombinant galectin-4 antigen
T3 sequence: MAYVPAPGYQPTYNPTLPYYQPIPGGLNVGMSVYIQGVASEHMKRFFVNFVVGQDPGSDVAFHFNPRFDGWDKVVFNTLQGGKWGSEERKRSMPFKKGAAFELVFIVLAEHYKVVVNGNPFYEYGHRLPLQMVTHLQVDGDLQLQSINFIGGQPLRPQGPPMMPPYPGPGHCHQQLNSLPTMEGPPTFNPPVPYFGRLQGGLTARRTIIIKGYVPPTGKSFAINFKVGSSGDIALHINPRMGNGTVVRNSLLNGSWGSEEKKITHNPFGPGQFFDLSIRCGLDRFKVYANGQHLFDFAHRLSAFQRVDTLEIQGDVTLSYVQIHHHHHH
Procedure: Binding of the purified scFvs to the recombinant galectin-4 antigen was confirmed by surface plasmon resonance experiments using a BiaCore T3000 instrument (GE Healthcare). Human galectin-4 was immobilized on CM5 sensor chip (GE Healthcare), and serial dilutions at concentrations between 500 nM and 15.6 nM of the purified scFv antibodies were injected over the surface.

avidin [4] = target: T4, avidin (UniProt P02701 25-152); assay: ELISA on avidin-coated wells without Agr2; detection with 9E10 and anti-murine Fc-HRP
T4 construct: Negative control surface of the ELISAs; also called avidin-coated wells; wells coated with avidin alone
T4 sequence (looked up): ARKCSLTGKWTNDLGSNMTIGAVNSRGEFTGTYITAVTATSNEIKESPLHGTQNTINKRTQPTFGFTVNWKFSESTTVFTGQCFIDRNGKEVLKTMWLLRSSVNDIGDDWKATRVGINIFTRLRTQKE
Procedure: Various concentrations of the scFv antibody were incubated with biotinylated Agr2 (residues 41-175 of recombinant human Agr2) that had been immobilized on avidin-coated maxisorp wells. Bound scFv antibody was detected using the anti-myc antibody 9E10 and an HRP-conjugated anti-murine Fc antibody. The specificity of the antibody-antigen interaction was confirmed by incubating the scFv antibodies with avidin-coated wells as a negative control. […] Varying concentrations of the scFv (CPR02) antibody were injected over a CM5 chip surface coated with immobilized human Agr2. The BiaCore analysis confirms that scFv (CPR02) antibody binds to human Agr2.
Binding of the purified scFvs to the recombinant Agr2 antigen (consisting of amino acid residues 41-175 of Agr2) was confirmed by ELISA. Maxisorp plates (Nunc) were incubated with avidin at 50 μg/mL in PBS for 6 hours at room temperature. Unbound avidin was removed by washing with PBS and the wells were incubated with biotinylated Agr2 at a final concentration of 0.2 μM overnight at 4° C. […] Bound scFvs were detected using a 1:1000 dilution of HRP-conjugated anti-murine Fc (Sigma Aldrich) and the signal was developed using BM Blue POD substrate (Roche). The ELISA output was recorded at a wavelength of 450 nm, subtracting absorbance at 620 nm as a reference baseline.

[5] = target: T5, recombinant human Agr2 (residues 41-175 of human anterior gradient protein 2 homolog) (human, UniProt O95994 41-175, surface lysine residues biotinylated with NHS-LC-biotin (as used in the ELISA; not stated for the CM5 chip)); assay: SPR (BIAcore T3000), human Agr2 on CM5 chip, scFv injected
T5 construct: Expressed in a BL21-based E. coli strain; also called biotinylated Agr2; recombinant Agr2 antigen
T5 sequence: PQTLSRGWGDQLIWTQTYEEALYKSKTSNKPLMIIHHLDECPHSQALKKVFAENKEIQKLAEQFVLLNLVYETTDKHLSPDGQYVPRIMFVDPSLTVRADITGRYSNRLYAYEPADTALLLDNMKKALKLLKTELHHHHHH
Procedure: Binding of the purified ScFvs to the recombinant human Agr2 antigen was confirmed by surface plasmon resonance experiments using a BIAcore T3000 instrument (GE Healthcare). Human Agr2 was immobilized on a CM5 sensor chip (GE Healthcare), and serial dilutions of the purified ScFv antibodies at concentrations between 3400 nM and 213 nM were injected over the surface.

[6] = target: T1, human cadherin-17 (as coated on the CM5 …); assay: BiaCore (SPR), monomeric scFv over a human cadherin-17 coated CM5 chip
Procedure: For the analysis of the AV17 antibody, size-exclusion chromatography was performed on an ÄKTA FPLC system using a Superdex 75 column (Amersham Biosciences). Surface plasmon resonance affinity measurements were performed using a Biacore S200 instrument and purified scFvs. Monomeric scFv were injected as a serial-dilution, with concentrations ranging from 950 nM to 9.5 nM.
as §2

[7] = target: T6, human galectin-2, natively expressed (LS174T cells; human colon biopsy sections) (human, UniProt P05162 1-132); assay: immunofluorescence of methanol-permeabilized LS174T cells; detection with 9E10 and anti-mouse IgG Alexa594
T6 construct: Cytoplasmic protein in fixed, methanol-permeabilized LS174T cells, and native protein in frozen colon sections; also called natively expressed galectin-2 antigen
T6 sequence: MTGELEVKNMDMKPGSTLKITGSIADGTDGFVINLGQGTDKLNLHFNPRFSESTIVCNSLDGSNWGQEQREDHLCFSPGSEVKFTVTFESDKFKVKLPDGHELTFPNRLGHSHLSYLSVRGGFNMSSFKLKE
Procedure: Methanol-permeabilized LS174T cells were stained with the anti-galectin-2 scFv antibody FF06. Antibody binding was detected using the anti-myc tag antibody 9E10 and an anti-mouse IgG Alexa594 antibody. Nuclei were stained with DAPI. To confirm the specificity of staining, cells were treated with an irrelevant scFv in combination with the detection antibodies. Pictures were taken using a 40× objective.
(i) Immunofluorescent staining was performed on the LS174T human colorectal adenocarcinoma cell line. LS174T cells were seeded onto 12 mm diameter glass coverslips at 30 000 cells/well. After 72 hours, cells were fixed in 2%-PFA at room temperature for 10 minutes. Coverslips were then washed with PBS and cells were permeabilized using 90% ice-cold methanol at −20° C. for 10 min. After fixation and permeabilization, coverslips were washed and blocked with 20% v/v fetal bovine serum in PBS for 30 min. After washing with PBS, scFvs were added at a concentration of 20 μg/mL in 3% w/v BSA/PBS solution containing the anti-myc tag antibody at a final concentration of 3 μg/ml, and incubated for 2 hours. Detection of bound scFvs was performed by 1 hour incubation with a goat anti-mouse Alexa594 antibody (Molecular probes) diluted 1:500 in 3% BSA/PBS. […] Coverslips were mounted with fluorescent mounting medium (Dako) and analyzed with an Axioskope2 mot plus microscope (Zeiss), using the 40× objective.

avidin [8] = target: T4, avidin; assay: ELISA, avidin-coated Maxisorp wells without galectin-2

B3: scFv(CPR02) (scFv)
scFv: [in this place about 100 residues]GAGPTFDYWGQGTLVTVSSGGGGSGGGGSGGGGSSELTQDPAVSVALGQTVRITCQGDSLRSYYASWYQQKPGQAPVLVIYGKNNRPSGIPDRFSGSSSGNTASLTITGAQAEDEADYYCNSSPPTRAVVVFGGGTKLTVLG
notes: Detected with the anti-myc antibody 9E10; also called anti-Agr2 scFv antibody; monomeric scFv(CPR02)
binding result (avidin [4]): no binding (tested: 1 µM)
Kd [5]: 460 nM

B5: scFv(AV17) (scFv)
scFv: [in this place about 100 residues]RPVMFDYWGQGTLVTVSSGGGGSGGGGSGGGGSSELTQDPAVSVALGQTVRITCQGDSLRSYYASWYQQKPGQAPVLVIYGKNNRPSGIPDRFSGSSSGNTASLTITGAQAEDEADYYCNSSLPSPQVVVFGGGTKLTVLG
notes: The monomeric SEC fraction was used for BiaCore; also called anti-cadherin-17 scFv(AV17); monomeric scFv(AV17)
koff [6]: 0.127 s⁻¹
kon [6]: 95100 M⁻¹ s⁻¹

B6: scFv(FF06) (scFv)
scFv: [in this place about 100 residues]TRPFRVFDYWGQGTLVTVSSGGGGSGGGGSGGGGSSELTQDPAVSVALGQTVRITCQGDSLRSYYASWYQQKPGQAPVLVIYGKNNRPSGIPDRFSGSSSGNTASLTITGAQAEDEADYYCNSSRSRRPAVVFGGGTKLTVLG
notes: Detected with the anti-myc antibody 9E10; also called anti-galectin-2 scFv antibody FF06
binding result [7]: binds
binding result (avidin [8]): no binding (tested: scFv dilutions between 500 nM and 4 nM)

Now from value to binder:

koff [1]: 0.125 s⁻¹
kon [1]: 149000 M⁻¹ s⁻¹
koff [2]: 0.154 s⁻¹
kon [2]: 240000 M⁻¹ s⁻¹
B1: scFv(AV17.3) (scFv)
scFv: [in this place about 100 residues]MSIRGFDYWGQGTLVTVSSGGGGSGGGGSGGGGSSELTQDPAVSVALGQTVRITCQGDSLRSYYASWYQQKPGQAPVLVIYGKNNRPSGIPDRFSGSSSGNTASLTITGAQAEDEADYYCNSSRGVRPLVVFGGGTKLTVLG
notes: The monomeric SEC fraction was used for BiaCore; also called AV17.3 antibody; monomeric scFv(AV17.3)

Kd [3]: 2000 nM
B2: scFv(FF05) (scFv)
scFv: [in this place about 100 residues]TRRLKFDYWGQGTLVTVSSGGGGSGGGGSGGGGSSELTQDPAVSVALGQTVRITCQGDSLRSYYASWYQQKPGQAPVLVIYGKNNRPSGIPDRFSGSSSGNTASLTITGAQAEDEADYYCNSSAWNYPIVVFGGGTKLTVLG
notes: Detected with the anti-myc antibody 9E10; also called anti-galectin-4 scFv antibody FF05

Kd [3]: 244 nM
B4: scFv(FF04) (scFv)
scFv: [in this place about 100 residues]MVWFELFDYWGQGTLVTVSSGGGGSGGGGSGGGGEIVLTQSPGTLSLSPGERATLSCRASQSVSSSYLAWYQQKPGQAPRLLIYGASSRATGIPDRFSGSGSGTDFTLTISRLEPEDFAVYYCQQARGMPLTFGQGTKVEIK
notes: Detected with the anti-myc antibody 9E10; also called anti-galectin-4 scFv antibody FF04
